Assay results: PMC5173251
These are yes or no findings as the source states them, for the method shown. Binding seen in cells or lysates may run through a third protein. Some results given as binding are weak or reduced against the parent protein; the word gives no strength. Where a sequence is shown, tags or fusion partners need not be part of it.

Protein sequences, listed by entry. Tags and fused reporters are not part of them.
UniProt Q558Z2: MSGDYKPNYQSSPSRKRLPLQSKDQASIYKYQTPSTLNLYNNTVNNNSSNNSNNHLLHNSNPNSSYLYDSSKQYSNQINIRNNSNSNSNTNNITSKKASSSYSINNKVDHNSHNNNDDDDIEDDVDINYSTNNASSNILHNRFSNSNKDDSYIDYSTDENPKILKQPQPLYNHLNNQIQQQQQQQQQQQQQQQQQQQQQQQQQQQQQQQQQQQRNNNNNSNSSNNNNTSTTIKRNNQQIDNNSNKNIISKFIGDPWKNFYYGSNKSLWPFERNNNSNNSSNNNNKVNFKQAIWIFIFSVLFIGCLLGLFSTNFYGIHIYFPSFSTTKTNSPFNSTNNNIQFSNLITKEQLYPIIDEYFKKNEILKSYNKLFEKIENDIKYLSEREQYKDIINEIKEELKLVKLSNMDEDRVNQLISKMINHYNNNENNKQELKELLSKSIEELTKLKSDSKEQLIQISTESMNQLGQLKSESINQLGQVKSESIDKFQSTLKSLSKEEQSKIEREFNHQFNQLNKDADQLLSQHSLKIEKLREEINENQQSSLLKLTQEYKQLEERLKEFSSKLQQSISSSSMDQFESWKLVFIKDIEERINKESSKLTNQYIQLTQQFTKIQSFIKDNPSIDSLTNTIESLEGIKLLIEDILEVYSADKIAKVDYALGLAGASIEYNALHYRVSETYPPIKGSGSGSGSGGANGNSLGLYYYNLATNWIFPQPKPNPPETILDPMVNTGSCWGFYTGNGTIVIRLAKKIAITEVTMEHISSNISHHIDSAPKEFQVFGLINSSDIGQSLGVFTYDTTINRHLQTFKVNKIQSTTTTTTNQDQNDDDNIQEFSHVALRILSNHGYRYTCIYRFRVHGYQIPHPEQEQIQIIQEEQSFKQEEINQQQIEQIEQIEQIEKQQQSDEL

Target: T1, GFP-DdNKAP (full length DdNKAP, aa 1-510) (D. discoideum) (UniProt Q55ED4)
T1 sequence: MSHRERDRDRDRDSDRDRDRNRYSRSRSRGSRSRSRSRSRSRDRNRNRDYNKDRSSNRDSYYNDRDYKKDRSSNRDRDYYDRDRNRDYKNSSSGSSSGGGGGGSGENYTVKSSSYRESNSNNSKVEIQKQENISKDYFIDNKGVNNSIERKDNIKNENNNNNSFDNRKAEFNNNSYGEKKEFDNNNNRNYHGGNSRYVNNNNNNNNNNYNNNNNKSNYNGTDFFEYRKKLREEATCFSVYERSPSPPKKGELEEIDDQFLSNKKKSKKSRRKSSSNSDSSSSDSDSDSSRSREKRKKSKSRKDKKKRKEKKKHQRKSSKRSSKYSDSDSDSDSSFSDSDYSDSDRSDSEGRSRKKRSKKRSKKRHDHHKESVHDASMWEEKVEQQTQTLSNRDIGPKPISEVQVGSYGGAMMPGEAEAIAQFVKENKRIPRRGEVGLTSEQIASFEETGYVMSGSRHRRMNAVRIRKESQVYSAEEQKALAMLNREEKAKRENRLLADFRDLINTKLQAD
Test: co-IP; GFP-Trap_A agarose beads, extracts of AX2 cells expressing GFP or GFP-DdNKAP; 50 mM Tris-HCl pH 7.4, 100 mM NaCl, 1% NP 40, 0.1% SDS, 0.5% sodium deoxycholate; blot with Sun-1 mAb K55-432-2 and GFP mAb K3-184-2

- binding: binds
Substance: Sun-1 (endogenous) (from UniProt Q558Z2 1-905)
